# This is one part of the list.
# B1: Clone730PsrP (Streptococcus pneumoniae) (protein)
# chain: MDHHHHHHHHHHASENLYFQGAMVVGSQTAAATEATAKKVEEDRKKPASDYVASVTNVNLQSYAKRRKRSVDSIEQLLASIKNAAVFSGNTIVNGAPAINASLNIAKSETKVYTGEGVDSVYRVPIYYKLKVTNDGSKLTFTYTVTYVNPKTNDLGNISSMRPGYSIYNSGTSTQTMLTLGSDLGKPSGVKNYITDKNGRQVLSYNTSTMTTQGSGYTWGNGAQMNGFFAKKGYGLTSSWTVPITGTDTSFTFTPYAARTDRIGINYFNGGGKVVESSTT
# What was measured:
# Assay in all cases: glycan array binding signal (z-score within array); higher = stronger binding
# Conditions in all cases: glycan notation: IUPAC condensed, linker removed
# [1] = target: Gal6S(b1-4)Glc6S
# In short: (§1)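 Glycan array data were curated from 3228 arrays in the Consortium for Functional Glycomics database and kept only where the protein sequence was available. Glycan names were converted to IUPAC-condensed notation, and columns mapping to the same glycan were averaged. The binding signal is a within-array Z-score, averaged across arrays of the same protein sequence at different concentrations or buffers and across linkers. Negative Z-scores can be read as non-binding.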
# [2] = target: Gal6S(b1-4)GlcNAc
# In short: as §1
# [3] = target: Gal6S(b1-4)GlcNAc6S
# In short: as §1
# [4] = target: GalNAc(a1-3)Gal
# In short: as §1
# [5] = target: GalNAc(a1-3)GalNAc
# In short: as §1
# [6] = target: GalNAc(a1-3)GalNAc(b1-3)Gal(a1-4)Gal(b1-4)Glc
# In short: as §1
# [7] = target: GalNAc(a1-3)GalNAc(b1-3)Gal(a1-4)Gal(b1-4)GlcNAc
# In short: as §1
# [8] = target: GalNAc(b1-3)Gal
# In short: as §1
# [9] = target: GalNAc(b1-3)Gal(a1-4)Gal(b1-4)GlcNAc
# In short: as §1
# [10] = target: GalNAc(b1-3)Gal(a1-4)Gal(b1-4)GlcNAc(b1-3)Gal(b1-4)Glc
# In short: as §1
# [11] = target: GalNAc(b1-3)Gal(a1-6)Gal(b1-4)Glc
# In short: as §1
# [12] = target: GalNAc(b1-3)GalNAc
# In short: as §1
# [13] = target: GalNAc(b1-3)GlcNAc
# In short: as §1
# [14] = target: GalNAc(b1-4)Gal(b1-4)Glc
# In short: as §1
# [15] = target: GalNAc(b1-4)GlcNAc
# In short: as §1
# [16] = target: GalNAc(b1-4)GlcNAc(b1-2)Man
# In short: as §1
# [17] = target: GalNAc(b1-4)GlcNAc(b1-2)Man(a1-3)[GalNAc(b1-4)GlcNAc(b1-2)Man(a1-6)]Man(b1-4)GlcNAc(b1-4)GlcNAc
# In short: as §1
# [18] = target: GalNAc(b1-4)GlcNAc(b1-3)GalNAc(b1-4)GlcNAc
# In short: as §1
# [19] = target: GalNAc(b1-4)GlcNAc6S
# In short: as §1
# [20] = target: GalNAc(b1-6)GalNAc
# In short: as §1
# [21] = target: GalNAc3S(b1-4)GlcNAc
# In short: as §1
# [22] = target: GalNAc3S(b1-4)GlcNAc3S
# In short: as §1
# [23] = target: GalNAc3S(b1-4)[Fuc(a1-3)]GlcNAc
# In short: as §1
# [24] = target: GalNAc4S6S(b1-4)GlcNAc
# In short: as §1
# [25] = target: GalNAc6S(b1-4)GlcNAc
# In short: as §1
# [26] = target: Glc(a1-4)Glc
# In short: as §1
# [27] = target: Glc(a1-4)Glc(a1-4)Glc(a1-4)Glc
# In short: as §1
# [28] = target: Glc(a1-6)Glc(a1-6)Glc
# In short: as §1
# [29] = target: Glc(a1-6)Glc(a1-6)Glc(a1-6)Glc
# In short: as §1
# [30] = target: Glc(b1-4)Glc
# In short: as §1
# [31] = target: Glc(b1-6)Glc
# In short: as §1
# [32] = target: GlcA(b1-3)Gal
# In short: as §1
# [33] = target: GlcA(b1-3)GlcNAc
# In short: as §1
# [34] = target: GlcA(b1-6)Gal
# In short: as §1
# [35] = target: GlcA3S(b1-3)Gal(b1-4)GlcNAc(b1-2)Man
# In short: as §1
# [36] = target: GlcA3S(b1-3)Gal(b1-4)GlcNAc(b1-3)Gal(b1-4)Glc
# In short: as §1
# [37] = target: GlcNAc(a1-3)Gal(b1-4)GlcNAc
# In short: as §1
# [38] = target: GlcNAc(a1-4)Gal(b1-3)GlcNAc
# In short: as §1
# [39] = target: GlcNAc(a1-4)Gal(b1-4)GalNAc
# In short: as §1
# [40] = target: GlcNAc(a1-4)Gal(b1-4)GlcNAc
# In short: as §1
# [41] = target: GlcNAc(a1-4)Gal(b1-4)GlcNAc(b1-3)Gal(b1-4)Glc
# In short: as §1
# [42] = target: GlcNAc(a1-4)Gal(b1-4)GlcNAc(b1-3)Gal(b1-4)GlcNAc
# In short: as §1
# [43] = target: GlcNAc(a1-4)Gal(b1-4)GlcNAc(b1-3)Gal(b1-4)GlcNAc(b1-3)Gal(b1-4)GlcNAc
# In short: as §1
# [44] = target: GlcNAc(a1-4)Gal(b1-4)GlcNAc(b1-3)Gal(b1-4)[Fuc(a1-3)]GlcNAc(b1-3)Gal(b1-4)[Fuc(a1-3)]GlcNAc
# In short: as §1
# [45] = target: GlcNAc(a1-6)Gal(b1-4)GlcNAc
# In short: as §1
binder,measurement,setting,value
B1,glycan array binding signal (z-score),[1],0.088
same,glycan array binding signal (z-score),[2],-0.403
same,glycan array binding signal (z-score),[3],-0.591
same,glycan array binding signal (z-score),[4],0.012
same,glycan array binding signal (z-score),[5],-0.485
same,glycan array binding signal (z-score),[6],-0.535
same,glycan array binding signal (z-score),[7],-0.218
same,glycan array binding signal (z-score),[8],-0.385
same,glycan array binding signal (z-score),[9],0.79
same,glycan array binding signal (z-score),[10],0.185
same,glycan array binding signal (z-score),[11],0.354
same,glycan array binding signal (z-score),[12],-0.384
same,glycan array binding signal (z-score),[13],0.15
same,glycan array binding signal (z-score),[14],1.39
same,glycan array binding signal (z-score),[15],0.829
same,glycan array binding signal (z-score),[16],-0.395
same,glycan array binding signal (z-score),[17],-0.02
same,glycan array binding signal (z-score),[18],-0.042
same,glycan array binding signal (z-score),[19],1.08
same,glycan array binding signal (z-score),[20],-0.41
same,glycan array binding signal (z-score),[21],0.126
same,glycan array binding signal (z-score),[22],-0.436
same,glycan array binding signal (z-score),[23],-0.468
same,glycan array binding signal (z-score),[24],-0.551
same,glycan array binding signal (z-score),[25],-0.531
same,glycan array binding signal (z-score),[26],0.253
same,glycan array binding signal (z-score),[27],2.03
same,glycan array binding signal (z-score),[28],-0.273
same,glycan array binding signal (z-score),[29],2.73
same,glycan array binding signal (z-score),[30],0.123
same,glycan array binding signal (z-score),[31],0.065
same,glycan array binding signal (z-score),[32],-0.489
same,glycan array binding signal (z-score),[33],1.24
same,glycan array binding signal (z-score),[34],-0.151
same,glycan array binding signal (z-score),[35],-0.412
same,glycan array binding signal (z-score),[36],-0.191
same,glycan array binding signal (z-score),[37],-0.247
same,glycan array binding signal (z-score),[38],-0.305
same,glycan array binding signal (z-score),[39],-0.514
same,glycan array binding signal (z-score),[40],-0.546
same,glycan array binding signal (z-score),[41],-0.43
same,glycan array binding signal (z-score),[42],-0.508
same,glycan array binding signal (z-score),[43],-0.533
same,glycan array binding signal (z-score),[44],-0.348
same,glycan array binding signal (z-score),[45],-0.199

# Source: the supplement of paper PMC8728848
